Some of the results follow. Construct or isoform of the protein are uncertain.
The sequences below were run against GST-SBP-ILF3 (Homo sapiens) (UniProt Q12906) (assay: targeted RNA Bind-n-Seq). Details: RBNS binding buffer: 25 mM Tris pH 7.5, 150 mM KCl, 3 mM MgCl2, 0.1% Tween, 0.5 mg/mL BSA, 1 mM DTT; 27 nM protein, 750 pM RNA pool; temperature not stated; high values mean tight binding; sequences stand for … in GGGUAAAAGCGAGGUGAA…CGGGACAAGUAUUAUGGG.

| Sequence | binding signal (log2 fold change) |
| --- | --- |
| UUUUUUUUUUGAGAGCGAGCCGCUCUCCUA [tttttgagapaired] | 0.278 |
| GUGUGGUGUGUUGGCAUCUAACACAUCACA [gtspaired] | -0.636 |
| UUUUUUUUUUGAGAGCGUAACGCUCUCCUG [tttttgagapaired] | 0.0155 |
| UUUUUUUUUUGAGACUGCGUCAGUCUCCUA [tttttgagapaired] | 0.537 |
| UUUUUUUUUUGAGAGGGGUGCCCUCUCCUA [tttttgagapaired] | 0.675 |
| UUUUUUUUUUGAGACGGGCGCCGUCUUCUA [tttttgagapaired] | 0.734 |
| UUUUUUUUUUGAGAGUGAUCCACUCUCCUG [tttttgagapaired] | -0.0865 |
| UUUUUUUUUUGAGAUGGAUACCAUCUCCUG [tttttgagapaired] | 0.33 |
| GUGUGUUGUGUUGGCUUCUAACACAGCGCG [gtspaired] | -0.735 |
| UUUUUUUUUUGAGAUCGGCGCGAUCUCCUA [tttttgagapaired] | 0.549 |
| UUUUUUUUUUGAGAGCGUGGCGCUCUUCUG [tttttgagapaired] | 0.516 |
| UUUUUUUUUUGAGACGGCGGCCGUCUCCUG [tttttgagapaired] | 1.09 |
| UUUUUUUUUUGAGAGGGGGCCCCUCUCCAG [tttttgagapaired] | 1.3 |
| UUUUUUUUUUGAGAAGGGGUCCUUCUCCGG [tttttgagapaired] | 0.271 |
| UUUUUUUUUUGAGAGGGGUACCCUCUCCUA [tttttgagapaired] | 0.157 |
| GUGGUGUGUGUUGGACUCUAACACACAUCA [gtspaired] | -0.207 |
| GUGGUUGGUGUUGGCGUCUAACACCAGCCG [gtspaired] | -0.686 |
| GUGUGUGGUGUUGGCCCCUAACACCACGCG [gtspaired] | -0.457 |
| UUUUUUUUUUGAGACCGAGUCGGUCUUCUA [tttttgagapaired] | 0.729 |
| UUUUUUUUUUGAGACCGAAACGGUCUCCGG [tttttgagapaired] | 0.473 |
| UUUUUUUUUUGAGACGGCGACCGUUUCCUG [tttttgagapaired] | 0.778 |
| UUUUUUUUUUGAGAGGGCAACCCUCUUCUG [tttttgagapaired] | 0.167 |
| UUUUUUUUUUGAGAUGGAUGCCAUCUCCAG [tttttgagapaired] | 0.31 |
| UUUUUUUUUUGAGAGCGUAACGCUCUUCUA [tttttgagapaired] | 0.425 |
| UUUUUUUUUUGAGAGCGUGACGCUCUCCAG [tttttgagapaired] | 0.374 |
| GUGUGUUGUGUUGGCGCCUAACACAGCGCA [gtspaired] | -0.576 |

| Sequence | binding signal (log2 fold change) |
| --- | --- |
| UUUUUUUUUUGAGAGCGAGGCGUUCUCCAG [tttttgagapaired] | 0.42 |
| UUUUUUUUUUGAGAUCGGGACGAUCUCCAG [tttttgagapaired] | -0.0116 |
| UUUUUUUUUUGAGACGGACACCGUCUCCGG [tttttgagapaired] | 0.513 |
| UUUUUUUUUUGAGAGUGUGGCAUUCUCCGG [tttttgagapaired] | 0.478 |
| GUGUUGUGUGUUGGAGUCUAACACACAGCG [gtspaired] | -0.706 |
| UUCUUCUCUCCUCCACUGGAGGGGGGAAGA [ctspaired] | -0.358 |
| UUUUUUUUUUGAGAGGGGAACCCUCUCCUG [tttttgagapaired] | 0.255 |
| UUUUUUUUUUGAGACUGUCUCAGUCUCCAG [tttttgagapaired] | 0.348 |
| GUGUGUGGUGUUGGUCUCUAACACCACGCG [gtspaired] | -0.81 |
| GUUGUGUGUGUUGGUGCCUAACACACACGA [gtspaired] | -0.173 |
| UUUUUUUUUUGAGAGCGUACCGUUCUCCGG [tttttgagapaired] | 0.639 |
| GGUGUGUGUGUUGGUGUCUAACACACGCGC [gtspaired] | -0.761 |
| GUGUGUGGUGUUGGCUCCUAACACCGCGCG [gtspaired] | -0.645 |
| GUGUGGUGUGUUGGCAUCUAACACAUCGCG [gtspaired] | -0.793 |
| UUUUUUUUUUGAGACGGGAACUGUCUCCUG [tttttgagapaired] | 0.795 |
| GUGUGGUGUGUUGGUGCCUAACACAUCGCA [gtspaired] | -0.763 |
| UUUUUUUUUUGAGAAGGGACCCUUCUCCAG [tttttgagapaired] | -0.0508 |
| UUUUUUUUUUGAGAACGAUGUAAUAAAAAA [ttttgagaunpaired] | 0.0917 |
| UUUUUUUUUUGAGAGGGAACCCCUCUCCAG [tttttgagapaired] | 0.0691 |
| UUCUCUCUUCCUCCGCCGGAGGGAGAGGGA [ctspaired] | -0.222 |
| UUUUUUUUUUGAGACCGAUCCGGUUUCCUA [tttttgagapaired] | 0.282 |
| GUGUGGUGUGUUGGAUUCUAACACAUCACA [gtspaired] | -0.231 |
| GGUGUGUGUGUUGGAGCCUAACACAUAUAC [gtspaired] | -0.537 |
| GGUGUGUGUGUUGGCGUCUAACACAUACAC [gtspaired] | -0.341 |
| UUCUCUCUUCCUCCAAUGGAGGGAGGGAGA [ctspaired] | -0.39 |
| GGUGGUUGUGUUGGCUUCUAACACAGCUAC [gtspaired] | -0.675 |

| Sequence | binding signal (log2 fold change) |
| --- | --- |
| UUUUUUUUUUGAGACUGAUGCAGUCUUCUA [tttttgagapaired] | 0.445 |
| GUGGUGUGUGUUGGAACCUAACACAUACUA [gtspaired] | -0.687 |
| GUGGUGUGUGUUGGCCUCUAACACACAUCG [gtspaired] | -0.649 |
| UUUUUUUUUUGAGACUGCUACAGUCUCCAG [tttttgagapaired] | 0.302 |
| UUUUUUUUUUGAGAUCGAAGCGAUCUUCUA [tttttgagapaired] | -0.104 |
| UUUUUUUUUUGAGAUGGGAUCCGUCUCCGG [tttttgagapaired] | 0.421 |
| UUUUUUUUUUGAGACUGGUCCAGUCUCCAG [tttttgagapaired] | 0.847 |
| GGUUGUUGUGUUGGUCCCUAACACAACGAC [gtspaired] | -0.453 |
| UUCUCUCCUCCUCCGCUGGAGGGGGGGAGA [ctspaired] | -0.828 |
| UUUUUUUUUUGAGAACGUAACGUUCUCCAG [tttttgagapaired] | 0.286 |
| GUGGUGUGUGUUGGCCCCUAACACAUACUA [gtspaired] | -0.176 |
| UUUUUUUUUUGAGAGCGUAGCGUUCUCCAG [tttttgagapaired] | 0.583 |
| GGUGUGUGUGUUGGUGCCUAACACACGCGC [gtspaired] | -0.259 |
| UUUUUUUUUUGAGAGGGAUACCCUCUCCUG [tttttgagapaired] | 0.28 |
| GUGGUGUGUGUUGGUGCCUAACACACGCCG [gtspaired] | -0.571 |
| GUGUUGUGUGUUGGCGCCUAACACACAGCA [gtspaired] | -0.446 |
| UUUUUUUUUUGAGAAGGGAUCCUUCUCCUA [tttttgagapaired] | -0.176 |
| UUUUUUUUUUGAGAGGGUGACCCUUUCCAG [tttttgagapaired] | -0.0207 |
| UUUUUUUUUUGAGAUCGAAACGGUCUCCAG [tttttgagapaired] | 0.131 |
| GGUUGGUGUGUUGGCCUCUAACACACCAGC [gtspaired] | -0.727 |
| UUUUUUUUUUGAGACUGCAGCAGUCUCCGG [tttttgagapaired] | 0.578 |
| UUUUUUUUUUGAGACCGAAUCGGUCUCCGG [tttttgagapaired] | 0.322 |
| UUUUUUUUUUGAGACGGUGACCGUUUCCUG [tttttgagapaired] | 0.713 |
| UUUUUUUUUUGAGACCGUCACGGUUUCCAG [tttttgagapaired] | 0.559 |
| UUUUUUUUUUGAGAUCGAGUCGAUCUCCGG [tttttgagapaired] | 0.292 |
| UUUUUUUUUUGAGAACGGAGCGUUCUCCUA [tttttgagapaired] | 0.252 |

| Sequence | binding signal (log2 fold change) |
| --- | --- |
| UUUUUUUUUUGAGAGGGACCCCCUCUCCGG [tttttgagapaired] | 0.534 |
| GUGGUGUGUGUUGGUACCUAACACAUACCA [gtspaired] | -0.696 |
| UUUUUUUUUUGAGACUGAUACAGUCUUCUA [tttttgagapaired] | 0.176 |
| UUUUUUUUUUGAGACUGAAUCAGUCUCCGG [tttttgagapaired] | 0.106 |
| UUUUUUUUUUGAGACGGAACCCGUCUCCGG [tttttgagapaired] | 0.416 |
| UUCCUUCUUCCUCCUAGGGAGGGAGAGGGA [ctspaired] | -0.694 |
| UUUUUUUUUUGAGAGGGGAUCCCUCUCCUG [tttttgagapaired] | 0.439 |
| UUUUUUUUUUGAGAUGGUGUCCAUUUCCAG [tttttgagapaired] | 0.857 |
| UUUUUUUUUUGAGACUGGAUCAGUUUCCUA [tttttgagapaired] | 0.351 |
| GUGUGGUGUGUUGGCGCCUAACACACUACG [gtspaired] | -0.692 |
| GGUUGGUGUGUUGGUCCCUAACACACUAAC [gtspaired] | -0.673 |
| UUUUUUUUUUGAGAGGGUAUCCUUCUCCGG [tttttgagapaired] | 0.169 |
| GUUGGUGGUGUUGGUACCUAACACCGCCAG [gtspaired] | -0.333 |
| UUUUUUUUUUGAGAGCGGGGCGUUCUCCUA [tttttgagapaired] | 0.563 |
| UUCUUCUCUCCUCCGUGGGAGGGGGGAAGA [ctspaired] | -0.0804 |
| UUUUUUUUUUGAGAGCGACACGCUCUUCUG [tttttgagapaired] | 0.381 |
| UUUUUUUUUUGAGAGGGGAGCCCUUUCCAG [tttttgagapaired] | 0.448 |
| UUCUCUCUUCCUCCAUGGGAGGGAGGGAGA [ctspaired] | -1 |
| GGUGGUUGUGUUGGAUUCUAACACAGCUAC [gtspaired] | -0.662 |
| UUUUUUUUUUGAGAGGGGAACCCUCUCCGG [tttttgagapaired] | 0.252 |
| UUUUUUUUUUGAGACCGUGGCGGUCUCCUG [tttttgagapaired] | 0.72 |
| GUGGUUGGUGUUGGCAUCUAACACCAGCCA [gtspaired] | -0.612 |
| UUUUUUUUUUGAGAACGAUACGUUCUCCAG [tttttgagapaired] | 0.042 |
| GGUGUGUGUGUUGGUCCCUAACACACGCAC [gtspaired] | -0.374 |
| UUUUUUUUUUGAGACGGCAGCCGUUUCCAG [tttttgagapaired] | 0.574 |
